Experimental data as given in PubChem BioAssay AID1745845 (National Center for Advancing Translational Sciences (NCATS), 2022).
Hit rate of the full screen: of about 360,000 compounds, about 2,600 (0.72%) were called active. The shares of active, inactive and inconclusive entries below differ from those in the screen. Calls follow the shape of the dose curve; as a rule, active = well fitted inhibition curve with a large enough effect; inconclusive = small, poorly fitted or top-dose-only effect; inactive = no such curve, though single readings can be large or run the other way. A potency beside an inconclusive call is a rough fit, not a confirmed value.

Experiment: Primary qHTS for Inhibitors of ATXN expression; also: nearly all actives have a fitted effect of over 55% in size
Conditions: HEK-293 ATXN2-luciferase reporter, luminescence, 24 h; activity change, negative = inhibition: at 57 µM (top of the series)
How it was run: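 qHTS (up to 57 uM final) was run with 24 h compound exposure of reporter cells at 37 °C. Each well was multiplexed: SteadyGlo luminescence measured ATXN2-luciferase expression after a fluorogenic Gly-Phe-AFC viability readout (25 uM final).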
% is scaled to controls: 0 for no effect and ±100 for the full control effect; potency is read from the fitted curve at half-maximal effect; tags tell the direction and shape of the fitted curve.

Row | Structure (SMILES) | Potency | activity change, negative = inhibition
1 | O=C(Nc1nccs1)c1ccc(Cl)cc1[N+](=O)[O-] | inactive | 
2 | COC(=O)c1ccccc1NC(=O)N1CCC(N2CCN(Cc3ccc(F)cc3)C(=O)C2=O)CC1 | inactive | 
3 | COc1ccc(C(=O)NNC(=O)CSc2nnc(COc3ccccc3OC)n2C)cc1 | inactive | 
4 | CC(=O)Nc1ccc2c(=O)n(-c3ccccc3)sc2c1 | inconclusive: 39.8 µM [inhibitor, single point] | 
5 | CC(C)Cn1c(N)c(C(=O)COC(=O)c2cc(C3CC3)nc3ccccc23)c(=O)n(C)c1=O | inconclusive: 39.8 µM [inhibitor, single point] | 
6 | Cc1ccc(OCC(=O)c2cc(C)n(Cc3cccs3)c2C)c([N+](=O)[O-])n1 | inconclusive: 2.12 µM [inhibitor, full curve] | 
7 | CN(C)C(CNC(=O)c1cc(S(=O)(=O)N(C)c2ccccc2)ccc1Cl)c1ccccc1 (centres undefined) | inconclusive: 35.5 µM [inhibitor, single point] | 
8 | C/C(=N\NC(=O)c1ccc(Cl)c(Cl)c1)c1ccc(Br)s1 | inconclusive: 7.08 µM [inhibitor, partial curve, poor fit] | 
9 | COc1ccc(NC(=S)NC(NC(=O)c2ccc(Cl)cc2Cl)C(Cl)(Cl)Cl)c([N+](=O)[O-])c1 (centres undefined) | inconclusive: 39.8 µM [inhibitor, single point] | 
10 | Cc1ccccc1Nc1c(-c2cccnc2)nc2ccc(Cl)cn12 | inconclusive: 14.1 µM [inhibitor, partial curve, poor fit] | 
11 | CC(=O)O[C@@]12CO[C@@H]1C[C@H](O)[C@@]1(C)C(=O)[C@H](O)C3=C(C)[C@@H](OC(=O)[C@H](O)[C@@H](NC(=O)OC(C)(C)C)c4ccccc4)C[C@@](O)([C@@H](OC(=O)c4ccccc4)[C@H]21)C3(C)C | inconclusive: 1 µM [inhibitor, full curve] | 
12 | Cc1ccccc1C(=O)Nc1ccc(C(=O)N/N=C/c2ccncc2)cc1 | inconclusive: 37.7 µM [inhibitor, single point] | 
13 | CCOc1ccc(CNCc2c(C(=O)O)c(C)n(Cc3c(F)cccc3Cl)c2C)cc1OC | inactive | 
14 | Oc1ccc(C=NNC(=S)Nc2ccc(F)cc2)c(O)c1 | inconclusive: 17.8 µM [inhibitor, single point] | 
15 | CCOc1ccc(/C=C/C2=Cc3c(sc(NC(=O)CSc4n[nH]c(N)n4)c3C#N)C(C)(C)C2)cc1 | inconclusive: 31.6 µM [inhibitor, single point] | 
16 | Cc1cc(Nc2cccc(C(F)(F)F)c2)nc2ccc(NC(=O)c3cccc(Cl)c3)cc12 | inconclusive: 22.4 µM [inhibitor, partial curve, poor fit] | 
17 | Cc1cccc(-c2ccc3[nH]c4c(c3c2)CCN2C[C@@H]([C@H](C)O)[C@@H](N(C)C(=O)Nc3ccc(F)cc3)C[C@@H]42)c1 | inconclusive: 39.8 µM [inhibitor, single point] | 
18 | O=C(NCC(c1ccco1)N1CCCC1)c1ccccc1Sc1ccc(C(F)(F)F)cc1[N+](=O)[O-] (centres undefined) | inactive | 
19 | CN(Cc1cnc2nc(N)nc(N)c2n1)c1ccc(C(=O)NC(CCC(=O)O)C(=O)O)c2ccccc12 (centres undefined) | inconclusive: 0.238 µM [inhibitor, full curve, poor fit] | 
20 | COc1ccc(CCNC(=O)CSc2cn(Cc3cccc(C)c3)c3ccccc23)cc1OC | inconclusive: 28.2 µM [inhibitor, single point] | 
21 | Oc1cccc(C=Nc2cccc3ccccc23)c1O | inconclusive: 25.1 µM [inhibitor, partial curve, poor fit] | 
22 | COc1ccc2sc3c(=O)[nH]c4ccccc4c3c2c1 | inconclusive: 2.51 µM [inhibitor, partial curve, poor fit] | 

Row | Structure (SMILES) | Potency | activity change, negative = inhibition
23 | CCN1CCCC1Cn1cnc2c([nH]c3ccc(C)cc32)c1=O (centres undefined) | inactive | 
24 | O=C(CSc1nc(-c2ccc(F)cc2)[nH]c1-c1ccc(F)cc1)Nc1ccc2c(c1)OCO2 | inconclusive: 39.8 µM [inhibitor, single point] | 
25 | COc1cc(NC(=O)CSc2ccc(-c3ccccn3)nn2)cc(OC)c1 | inconclusive: 20 µM [inhibitor, partial curve] | 
26 | O=C(Nc1cccs1)Nc1c(F)cc(F)cc1Br | inconclusive: 2.99 µM [inhibitor, partial curve] | 
27 | N=c1n(CCN2CCCCC2)c2ccccc2n1CC(=O)c1cccs1 | inconclusive: 25.1 µM [inhibitor, partial curve, poor fit] | 
28 | Cc1ccc(Cn2ccc(NC(=O)c3noc4c3CCc3ccccc3-4)n2)cc1 | inactive | 
29 | CNC[C@H](CC1CCCCC1)NC[C@H](CO)NCC1(c2ccccc2)CC1 | inconclusive: 25.1 µM [inhibitor, partial curve, poor fit] | 
30 | OC(c1cccc(Cl)c1)c1ncc(-c2ccc(C(F)(F)F)cc2)[nH]1 (centres undefined) | inconclusive: 39.8 µM [inhibitor, single point] | 
31 | Cc1cc(C)c2nc3nc(C)c(C)cc3c(N)c2c1 | inconclusive: 15.8 µM [inhibitor, partial curve, poor fit] | 
32 | O=C(CCCN1C(=O)/C(=C/c2cccs2)SC1=S)Nc1ccccn1 | inconclusive: 39.8 µM [inhibitor, single point] | 
33 | Cc1cccnc1Sc1c([N+](=O)[O-])ncn1C | inactive | 
34 | CC(=O)Nc1ccc(OCC(O)CN2CCN(c3ccc(C)c(Cl)c3)CC2)cc1 (centres undefined) | inconclusive: 20 µM [inhibitor, partial curve] | 
35 | CSCC(C)N1CCC(CO)(CCc2ccccc2)CC1 (centres undefined) |  | inactive: -17.3% [at 11.3 µM]
36 | CCN1CCN(c2ccc(S(=O)(=O)N3CCCCC3)cc2NC(=O)/C=C/c2ccc([N+](=O)[O-])cc2)CC1 | active: 31.6 µM | 
37 | CS(=O)(=O)Nc1cccc(NC(=O)C2Cc3c(-c4ccccc4)ccnc3O2)c1 (centres undefined) | inactive | 
38 | COc1ccccc1OCC(=O)Nc1oc(-c2ccccc2)c(-c2ccccc2)c1C#N | inactive | 
39 | COc1nc2c(c(-c3cc(Br)cs3)c1C#N)Cc1ccccc1-2 | inactive | 
40 | CCc1ccc(NC(=O)CN2C(=O)C3(SCC(=O)N3c3ccc(F)c(F)c3)c3ccccc32)cc1 (centres undefined) | inconclusive: 39.8 µM [inhibitor, single point] | 
41 | CCCCC(=O)N1CCN(c2nc3ccc(Br)cc3s2)CC1 | inconclusive: 12.6 µM [inhibitor, partial curve, poor fit] | 
42 | Cc1cc(C(=O)NNC(=O)[C@H](C)NC(=O)c2ccc(Br)cc2)c(C)o1 | inactive | 
43 | CN1CCN(Cc2cc(COCc3ccccc3)c3cccnc3c2O)CC1 | active: 3.98 µM | 
44 | COc1ccccc1NC(=O)c1sc2ncn(CC(=O)Nc3ccccc3)c(=O)c2c1C | inconclusive: 39.8 µM [inhibitor, single point] | 

Row | Structure (SMILES) | Potency | activity change, negative = inhibition
45 | O=C(COc1ccccc1)NNC(=S)NC(=O)c1ccccc1 | inconclusive: 2.67 µM [inhibitor, partial curve, poor fit] | 
46 | Fc1ccc(Cl)cc1-c1nc(Nc2ccncc2)c2nccnc2n1 | inconclusive: 9.68 µM [inhibitor, partial curve] | 
47 | Cc1ccc(S(=O)(=O)c2nc(S(=O)(=O)c3ccccc3)sc2NCCCOC(C)C)cc1 | inactive | 
48 | COc1ccc(C(=O)NC(=S)NNC(=O)c2cccc(C)c2)cc1 | inconclusive: 28.2 µM [inhibitor, partial curve] | 
49 | Clc1ccccc1/C=C/c1nc(-c2ccccn2)no1 | active: 5.01 µM | 
50 | Cc1ccccc1Oc1nc(-c2ccccn2)nc2ccccc12 | inconclusive: 21.2 µM [inhibitor, partial curve] | 
51 | Cn1nc(C(F)(F)F)c2cc(C(=O)Nc3ccc(F)cc3)sc21 | inconclusive: 11.2 µM [inhibitor, partial curve, poor fit] | 
52 | CCCOc1ccc(-c2nc(SCC(=O)c3ccc(Cl)cc3)n[nH]2)cc1 | inactive | 
53 | Cc1ccc(CN2C(=O)[C@@H]3Cc4c([nH]c5ccccc45)C(C)(C)N3C2=O)cc1 | inconclusive: 25.1 µM [inhibitor, single point] | 
54 | Cc1onc(-c2ccccc2)c1C(=O)NC(=S)NNC(=O)c1ccccc1O | inconclusive: 10.6 µM [inhibitor, partial curve, poor fit] | 
55 | COc1cccc(OC)c1C(=O)NCCc1csc(-c2ccc(Cl)cc2)n1 | inconclusive: 22.4 µM [inhibitor, partial curve, poor fit] | 
56 | OC[C@H]1O[C@@H](Oc2cc(O)cc(C=Cc3ccc(O)cc3)c2)[C@H](O)[C@@H](O)[C@H]1O | inactive | 
57 | Cn1nnnc1SCCNCc1cc(Br)ccc1OCc1ccccc1Cl | inconclusive: 31.6 µM [inhibitor, single point] | 
58 | COc1ccc(-c2sc(Nc3ccc(F)c(F)c3F)nc2CCC(=O)NN)cc1 | inconclusive: 39.8 µM [inhibitor, single point] | 
59 | Cc1cccc2c1-c1sc(C(=O)N(C)c3cccc(Cl)c3)cc1CO2 | inactive | 
60 | O=C(c1ccc2c(c1)N(Cc1cccc(F)c1)C(=O)c1ccccc1S2)N1CCCC1 | inconclusive: 25.1 µM [inhibitor, single point] | 
61 | CCN(CC)CCn1c(=S)[nH]c2ccc(Cl)cc2c1=O | inconclusive: 11.2 µM [inhibitor, partial curve, poor fit] | 
62 | Cc1cccc(CCNC(=O)c2cc3c(=O)n(C)c4ccccc4c3n2C)c1 | inactive | 
63 | COc1ccccc1/C=C1\SC(=S)N(CCC(=O)Nc2cccc(O)c2)C1=O |  | inconclusive: -52.8% [inhibitor]
64 | C[C@@H](C(=O)NCCc1c[nH]c2ccccc12)[C@H]1C[C@]1(C)[C@H](NC(=O)OCc1ccccc1)c1ccccc1 | inconclusive: 39.8 µM [inhibitor, single point] | 
